Test results from the supplement of paper PMC12889115.
The other results are listed elsewhere or left out. No stated cut-off is given here; in the data, active = 25% or less and inactive = the rest. Repeats are few or missing, and single values can be far off.

System: Salmonella enterica serovar Typhimurium SL1344
Assay: intramacrophage bacterial GFP load (SAFIRE), percent of DMSO control (% of DMSO); higher = more intracellular bacteria (less inhibition)
Conditions: 25 µM; system: infected RAW 264.7 macrophages
Experimental: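 Secondary screen of the 553 primary hits at 25 µM. (i) S. Typhimurium SL1344 grown in Mueller-Hinton broth with 0.5 µg/mL polymyxin B, OD600 read after 18 h. (ii) SAFIRE assay: RAW 264.7 macrophages infected with S. Typhimurium sifB::gfp (MOI 30); compound added 2 h post-infection; cells fixed at 18 h; GFP-positive pixel fraction per macrophage imaged by confocal microscopy and expressed as % of DMSO control.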
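Further: compounds tested were the hits of an earlier 50 µM broth growth screen of a drug-like diversity library run with polymyxin B.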

Compound	intramacrophage bacterial GFP load
CCOC(=O)C1(C/C=C/c2ccccc2)CCCN(C(=O)CCn2ccc(C)n2)C1 (stereo not given)	active: 3.1
CCOC(=O)C1(Cc2ccccc2F)CCCN(C(=O)c2cc(OC)cc(OC)c2)C1 (stereo not given)	inactive: 54.3
Cc1cc(C(=O)N(Cc2ccncc2)Cc2cccc(OCCc3ccc(F)cc3)c2)n(C)n1	inactive: 53.2
COc1cc(CC2(CCC(=O)N(C)Cc3cnn(-c4ccccc4C)c3)CCC(=O)N2)ccc1F (stereo not given)	inactive: 87.4
CCOC(=O)C1(CCCc2ccccc2)CCN(C(=O)c2ccc(OC)o2)CC1	inactive: 35.7
